# Results from the supplement of paper PMC11417369.
# ± gives the standard deviation of the averaged measurements. The list shows a part of the results.
# Tested on: PfAP2-G AP2 domain (GST-tagged)
# Experiment: gcPBM binding intensity (ln(normalized median fluorescence intensity)); higher = stronger DNA binding
# How it was run: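 In this array assay, P. falciparum DNA-binding domains with a GST tag, expressed in E. coli, were applied for 1 h to primer-extended double-stranded 36-bp intergenic genomic probes and negative controls on an Agilent 4 × 180k array. Bound protein was visualised with Alexa488 anti-GST antibody at 488 nm. Binding intensity is the highest Masliner-normalised natural-log median intensity across replicate spots of either probe orientation.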
row,Sequence,gcPBM binding intensity (ln)
1,TGATCACATAATAAATGTACAAAAAAAAATTAATAA [XGTACX_site5867],10.9 ± 0.48
2,AAAAAAAAGTTGTAAGTGCATGTATATAATAATATT,9.89 ± 0.14
3,TAAGGAAGAAGAAAAAGTACTAAAGGTATAAATGCG [XGTACX_site2628],11 ± 0.54
4,TTTAGATAATTCATTACACACATGTATATATATATA [CACACA_site3483],10.1 ± 0.33
5,AAAAAAAAAATATATTGTACAATATTGTAGCTATAT [XGTACX_site7180],10.8 ± 0.47
6,TTCAATAGTAAGTATACACACATATAAATAAATAAA [CACACA_site7295],10.2 ± 0.21
7,TTTTTATTGTTGCTATATTTATAACAATTTATCATA [GTGCAC_negctrl_site75],9.7 ± 0.11
8,GCAACCTTGTGCAAATGTACAAAAAAAAAAAAAAAA [XGTACX_site679],10.6 ± 0.79
9,TTTTTGTTATTTTTAGTGCAGAAGAATAAATTTTAA,10 ± 0.17
10,AAAATTTCTTATTTTGTACACACAATAAATATTCAC [CACACA_site8464],11.1 ± 0.65
11,CAATTTATAAAGAAAACACACATATACATAAATACA [CACACA_site4829],10.2 ± 0.16
12,TATAAATTAAAACATTGTACATTTTTATTATTATGT [XGTACX_site579],10.8 ± 0.47
13,TATCTTACTTTTTGCACACACTAATATTATTGTTTA [CACACA_site4990],10.3 ± 0.21
14,AAAATTAATATCTTGGTGCATTTTTTAATATTATTA [GTGCAC_site9638],9.96 ± 0.071
15,ACAACTATTCATCATAGTACACGCATGATATATATA [XGTACX_site1539],10.9 ± 0.53
16,TATATATATGGACACACACACATATATATATATTTT [CACACA_site5409],10.9 ± 0.71
17,TATATATAATATAGTGCATGTAAAAAATAAACCATG [TGCATGCA_site932],10.2 ± 0.16
18,TTTTTTTTTTAAATGTGTCCTCATTATAATATATGT [XGTACX_site5331],11.2 ± 0.93
19,TTTTTTAAATTATATTATAGCAAATAAATATTAAAA [CACACA_negctrl_site1655],9.81 ± 0.28
20,TAATTATGCGGACACACACACACACCCAACTAAAAA [CACACA_site5427],11.4 ± 0.86
21,GCATTATTATATATTTGTACATATTTTTTTTTAAAA [XGTACX_site5436],11.2 ± 0.64
22,ATGTCACAATTTTTCACACACAAAATTTAAATACAT [CACACA_site5168],10.3 ± 0.17
23,TATTATTATATATATAGTACATAAAATATAAAAAAA [XGTACX_site2060],11 ± 0.69

row,Sequence,gcPBM binding intensity (ln)
1,TCAAATTTTCAACATTGTACATAAATGTATAAATAT [XGTACX_site6042],10.8 ± 0.57
2,CAAAATATATATGACACACACAAAAAAAGTATATTA [CACACA_site1589],10.24 ± 0.042
3,AATTATATATAAAGAAGTACTATTTCAAGGAGTTTT [XGTACX_site3837],11.1 ± 0.61
4,CTAAACCTTTTGAGCACACATATATATATATATATA [CACACA_site1782],10.7 ± 0.88
5,TTCGCTGTTTTAATTAGTACTTATATATAATATTAT [XGTACX_site1149],11 ± 0.47
6,TATTGATATATATATATATATATATGTATATACTTA [GTGCAC_negctrl_site111],9.62 ± 0.12
7,TTTTTATATAAGAAAAAATTATAACAATTTGTTAAT [XGTACX_negctrl_site422],9.76 ± 0.24
8,TTTTTATTTTCATATGTGCACTTATATATATATATA,10.5 ± 0.34
9,TATTATAGTCCGACTTTTTAATTTCTTTATTGTTTT [CACACA_negctrl_site1381],10.8 ± 0.4
10,TGAATATTCATATGCACACAAATTAATATACATAAT [CACACA_site442],10.11 ± 0.071
11,TTTTATTTTTAAAATTGTACATTATTATTGTTATTT [XGTACX_site1439],10.8 ± 0.46
12,AAATTTTAATTAGACTGTACACATTTTAGAATAATT [XGTACX_site4819],11.6 ± 0.92
13,TTTTATGTTTTAAAATGTACGTGTCAATGAATAAGT [XGTACX_site6239],11.3 ± 0.91
14,ACCTTAATTATAATAACACACGAAAAGTGGACACAT [CACACA_site1750],11.3 ± 0.91
15,TATTTGTTCTGATCCTTTTATTCAACTTTTTTTTTT [CACACA_negctrl_site978],10.02 ± 0.035
16,GGCTAAAAGTTGCACACACACAAAAAAAAAAAAAAA [CACACA_site7531],10.4 ± 0.62
17,TTGTTCATTATGCACAGTACATAAAAAGTAAAAAAA [XGTACX_site2403],10.9 ± 0.56
18,TCATTTATTTTAAGGTGTACCGTTTAAAATCACAAA [XGTACX_site3243],11 ± 0.8
19,ATATTGACAAATATTACACACATATATATATATATA [CACACA_site4079],10 ± 0.2
20,TATTTTTATAAAAACTGTACATAATAAATAAAAATA [XGTACX_site4743],11.1 ± 0.62
21,AATCAAAGTAATTTAACACACAATTTTAATACTGTT [CACACA_site7169],9.69 ± 0.18
22,TTATATGTTTCTTCACGTACGTATAAAAATGAACTT [XGTACX_site1764],11.3 ± 0.72
23,TATCATGTGCGTGCGTGTACTTAACACACATAATAT [XGTACX_site2404],11.2 ± 0.95

row,Sequence,gcPBM binding intensity (ln)
1,AATTTACACGTACGTGTACACACAAAAATATGTTTT [CACACA_site8242],11.8 ± 1
2,CAGACATTAATAAGTAGTACACAATAATTGACTAGG [XGTACX_site854],11.6 ± 0.97
3,TTTTTTTGCGCGGGAAGAATAAAATTTATAGAATAT [TGCATGCA_negctrl_site306],10.4 ± 0.36
4,AATGTTTAATATAACGCATGCCTTAATATAGAATGC [TGCATGCA_site463],9.835 ± 0.021
5,AGTTTTATGTAGTGTTGTACTTTATACAAATATATA [XGTACX_site990],11.3 ± 0.79
6,AGTAATAATATAATTTGTACATATATATATTATAAA [XGTACX_site7138],10.9 ± 0.61
7,TACAAAAATGTAGTCACACATATGTATACTTTTATG [CACACA_site5607],10.3 ± 0.26
8,ATATATATAATTTAAAGTACATATTTAAGAATGAAA [XGTACX_site2238],11.1 ± 0.67
9,TTTCTAATTTATATCACACACATATATAAATAGTAA [CACACA_site6156],9.98 ± 0.21
10,ATACACAATTATTTTCCTATTATGCAAGCAAATTTA [CACACA_negctrl_site1176],10.01 ± 0.021
11,TGAAAAGATAAAAAATGTACATATATATTATATATA [XGTACX_site5678],11 ± 0.55
12,TTTCTAAATAATATACACAAAAAAATAAAACACTAA [TGCATGCA_negctrl_site43],10.1 ± 0.19
13,GTACAAAAAAAGTGTACACAAAGTAAGACTTTAATT [CACACA_site5068],11.7 ± 0.83
14,CACTGTAAATAGAAAGTGCAAAAATTGTAAATAAAA [GTGCAC_site9980],10.16 ± 0.099
15,TAAATACATTGACACACACACAAATATGTACATACA [CACACA_site7371],11.4 ± 0.78
16,ACTTGATTACACAACCACAAGTAATTGAAATTATTT [XGTACX_negctrl_site297],10.2 ± 0.18
17,GTTTAACTGTTTTATACACACAATGTAGACAATAAA [CACACA_site8967],10.2 ± 0.28
18,ATATATATAATATATTGTACATATAATATATATATA [XGTACX_site4792],10.9 ± 0.72
19,ATAAAAACTACATTCACACAAAAAAAAATCTACAAA [CACACA_site6109],9.99 ± 0.18
20,AATAATATTAATAAAAGTACATGTGTAATATATATA [XGTACX_site5922],11.4 ± 0.88
21,ATAAAGATAATATATGCACACATATAAATATATAAA [CACACA_site9153],9.98 ± 0.36
22,ATATATATATGTTAGGTGCATATATATTTTGTGGAT [GTGCAC_site9964],10.1 ± 0.35
23,ACATCTAGGCTTATTTTATGATACATGTGAATATAT [TGCATGCA_negctrl_site325],9.79 ± 0.099

row,Sequence,gcPBM binding intensity (ln)
1,GTTTTTGAGTAGTACACACACAATAAGGATGGATTC [CACACA_site3192],11.5 ± 0.97
2,ATAATTTCTATTTCACAAAAAAAAAAAAAAAAAAAA [CACACA_negctrl_site1012],9.53 ± 0.29
3,ACTAAAAGGCTTAAATGTACATATTATATATATATA [XGTACX_site5897],11.1 ± 0.76
4,CTTTTTTTTTTGGGGGTGCATGCAAGACATATATTT [GTGCAC_site9660],11 ± 0.77
5,ACATAACTTATATATACACACAATACAAATATATAT [CACACA_site2774],9.955 ± 0.007
6,TTGTTCTTTTGAAAGGTGCAAAAGAAAAATAATTAA,10.2 ± 0.35
7,AGAAAACCGAAAGAGACACACAACATGTCGATTTAG [CACACA_site3764],9.88 ± 0.085
8,GAATAATTAAAAGGTAGTACAAAGGTTATCAAAAGG [XGTACX_site8496],11.6 ± 0.93
9,GATATGATTATGTGATGGTGTTTTTGATAGATATTT [CACACA_negctrl_site1445],9.89 ± 0.12
10,TGTGTCAAGTTTAATAAACGCATATAATATATATGA [CACACA_negctrl_site607],9.68 ± 0.014
11,TTTAAATTTTTATATTGTACTTTATTTATTTATTTA [XGTACX_site869],11.2 ± 0.85
12,CATGACATATCCTGTAGTACAACGTATATATAAGAT [XGTACX_site2577],11.4 ± 0.72
13,AAAATAAAATCATAAAGTACAAAAAGAAAATAAAAA [XGTACX_site7376],10.8 ± 0.43
14,TATATATGTAGACGTTGTACTTTTTTGTAAGTTTAA [XGTACX_site5638],11.3 ± 0.82
15,AGGAATCTACATATATGTACATATATTGATATATTT [XGTACX_site137],11.1 ± 0.47
16,TTTAATTTTTATATAACACACATATTGTAATTATGT [CACACA_site4566],9.7 ± 0.17
17,ATGTTTAATTAAATATGTACTTATTATATTATATGT [XGTACX_site8137],11.5 ± 1.1
18,TGTGTTAATATGAATTTAAACATAAATAAATAAATA [CACACA_negctrl_site1589],9.685 ± 0.021
19,GAACATTTATTGTGTGTGCACAATTCTTTTTTAACC [GTGCAC_site9697],10.4 ± 0.16
20,TCAATAAATATACATACATGCATACATACATACATA [TGCATGCA_site197],9.91 ± 0.042
